Reference: PMC10693172
No constants are given. Whether binding was seen depends on the method and setting. Binding seen in cells or lysates may run through a third protein. Some binding calls cover weakened binding; strength is not graded here. For some of these results: Sequences can lack the tags named with a protein.

Amino acid sequences for entries named in this document (tags omitted). A change or cut given only in a name is not applied to a line headed by its entry. Residues count along the entry.
UniProt Q08211: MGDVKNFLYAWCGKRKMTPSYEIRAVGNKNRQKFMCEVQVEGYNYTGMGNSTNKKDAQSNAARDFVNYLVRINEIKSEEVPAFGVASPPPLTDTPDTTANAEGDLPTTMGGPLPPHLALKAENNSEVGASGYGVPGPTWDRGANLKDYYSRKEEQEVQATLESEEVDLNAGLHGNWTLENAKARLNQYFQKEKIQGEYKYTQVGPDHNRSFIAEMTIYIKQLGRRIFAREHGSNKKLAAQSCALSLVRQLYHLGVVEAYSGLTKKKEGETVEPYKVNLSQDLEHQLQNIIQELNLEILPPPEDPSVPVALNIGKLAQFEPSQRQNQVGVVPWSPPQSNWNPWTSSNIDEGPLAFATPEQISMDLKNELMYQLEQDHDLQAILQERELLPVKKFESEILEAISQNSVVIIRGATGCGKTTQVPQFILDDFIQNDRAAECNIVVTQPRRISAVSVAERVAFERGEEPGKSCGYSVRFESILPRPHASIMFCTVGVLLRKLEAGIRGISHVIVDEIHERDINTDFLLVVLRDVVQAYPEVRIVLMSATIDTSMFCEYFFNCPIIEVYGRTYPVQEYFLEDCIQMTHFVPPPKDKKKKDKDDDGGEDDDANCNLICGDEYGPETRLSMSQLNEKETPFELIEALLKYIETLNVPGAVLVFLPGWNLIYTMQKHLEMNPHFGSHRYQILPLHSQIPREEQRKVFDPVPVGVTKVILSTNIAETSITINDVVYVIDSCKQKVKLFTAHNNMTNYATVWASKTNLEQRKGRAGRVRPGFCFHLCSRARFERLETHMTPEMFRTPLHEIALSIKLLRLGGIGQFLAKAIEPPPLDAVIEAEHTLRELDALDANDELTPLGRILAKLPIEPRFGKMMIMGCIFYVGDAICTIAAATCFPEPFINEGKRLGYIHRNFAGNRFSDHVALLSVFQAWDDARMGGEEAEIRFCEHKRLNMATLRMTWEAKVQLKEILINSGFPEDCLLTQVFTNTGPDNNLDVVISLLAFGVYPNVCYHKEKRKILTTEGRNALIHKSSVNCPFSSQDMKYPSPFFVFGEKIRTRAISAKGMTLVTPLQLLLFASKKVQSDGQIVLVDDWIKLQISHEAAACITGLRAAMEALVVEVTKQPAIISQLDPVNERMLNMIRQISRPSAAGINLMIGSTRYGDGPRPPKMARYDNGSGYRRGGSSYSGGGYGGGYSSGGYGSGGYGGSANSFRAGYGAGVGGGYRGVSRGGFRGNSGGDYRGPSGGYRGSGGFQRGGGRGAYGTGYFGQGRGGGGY
DHX9 Myc 1, residues 1-254: residues 1-254 of Q08211
DHX9 Myc 2, residues 255-635: residues 255-635 of Q08211
DHX9 Myc 3, residues 636-1200: residues 636-1200 of Q08211

B1: ILF3 (Interleukin enhancer Binding Factor 3) (protein, UniProt Q12906 1-894)
chain: MRPMRIFVNDDRHVMAKHSSVYPTQEELEAVQNMVSHTERALKAVSDWIDEQEKGSSEQAESDNMDVPPEDDSKEGAGEQKTEHMTRTLRGVMRVGLVAKGLLLKGDLDLELVLLCKEKPTTALLDKVADNLAIQLAAVTEDKYEILQSVDDAAIVIKNTKEPPLSLTIHLTSPVVREEMEKVLAGETLSVNDPPDVLDRQKCLAALASLRHAKWFQARANGLKSCVIVIRVLRDLCTRVPTWGPLRGWPLELLCEKSIGTANRPMGAGEALRRVLECLASGIVMPDGSGIYDPCEKEATDAIGHLDRQQREDITQSAQHALRLAAFGQLHKVLGMDPLPSKMPKKPKNENPVDYTVQIPPSTTYAITPMKRPMEEDGEEKSPSKKKKKIQKKEEKAEPPQAMNALMRLNQLKPGLQYKLVSQTGPVHAPIFTMSVEVDGNSFEASGPSKKTAKLHVAVKVLQDMGLPTGAEGRDSSKGEDSAEETEAKPAVVAPAPVVEAVSTPSAAFPSDATAEQGPILTKHGKNPVMELNEKRRGLKYELISETGGSHDKRFVMEVEVDGQKFQGAGSNKKVAKAYAALAALEKLFPDTPLALDANKKKRAPVPVRGGPKFAAKPHNPGFGMGGPMHNEVPPPPNLRGRGRGGSIRGRGRGRGFGGANHGGYMNAGAGYGSYGYGGNSATAGYSQFYSNGGHSGNASGGGGGGGGGSSGYGSYYQGDNYNSPVPPKHAGKKQPHGGQQKPSYGSGYQSHQGQQQSYNQSPYSNYGPPQGKQKGYNHGQGSYSYSNSYNSPGGGGGSDYNYESKFNYSGSGGRSGGNSYGSGGASYNPGSHGGYGGGSGGGSSYQGKQGGYSQSNYNSPGSGQNYSGPPSSYQSSQGGYGRNADHSMNYQYR
B2: ILF3-Flag, full-length (protein, UniProt Q12906 1-894)
chain: B1 chain
B3: ILF3 Flag 1, residues 1-378 (domain or fragment, UniProt Q12906 1-378)
chain: MRPMRIFVNDDRHVMAKHSSVYPTQEELEAVQNMVSHTERALKAVSDWIDEQEKGSSEQAESDNMDVPPEDDSKEGAGEQKTEHMTRTLRGVMRVGLVAKGLLLKGDLDLELVLLCKEKPTTALLDKVADNLAIQLAAVTEDKYEILQSVDDAAIVIKNTKEPPLSLTIHLTSPVVREEMEKVLAGETLSVNDPPDVLDRQKCLAALASLRHAKWFQARANGLKSCVIVIRVLRDLCTRVPTWGPLRGWPLELLCEKSIGTANRPMGAGEALRRVLECLASGIVMPDGSGIYDPCEKEATDAIGHLDRQQREDITQSAQHALRLAAFGQLHKVLGMDPLPSKMPKKPKNENPVDYTVQIPPSTTYAITPMKRPMEEDG
B4: ILF3 Flag 3, residues 592-894 (domain or fragment, UniProt Q12906 592-894)
chain: TPLALDANKKKRAPVPVRGGPKFAAKPHNPGFGMGGPMHNEVPPPPNLRGRGRGGSIRGRGRGRGFGGANHGGYMNAGAGYGSYGYGGNSATAGYSQFYSNGGHSGNASGGGGGGGGGSSGYGSYYQGDNYNSPVPPKHAGKKQPHGGQQKPSYGSGYQSHQGQQQSYNQSPYSNYGPPQGKQKGYNHGQGSYSYSNSYNSPGGGGGSDYNYESKFNYSGSGGRSGGNSYGSGGASYNPGSHGGYGGGSGGGSSYQGKQGGYSQSNYNSPGSGQNYSGPPSSYQSSQGGYGRNADHSMNYQYR

Experiments:
[1] = target: DHX9 (DExH-box helicase 9) (human (endogenous in AGS and HGC-27)) (UniProt Q08211); test: co-IP; endogenous proteins, AGS and HGC-27 lysates, DHX9 and ILF3 antibodies (Fig. 7A); anti-DHX9 co-IP from cells with DHRS4-AS1 overexpressed or knocked down, pretreated with MG132 (5 µM) for 90 min (Fig. 7G)
DHX9-Myc, full-length = DHX9-Myc, full-length (UniProt Q08211); test: co-IP; lysates of HEK293 cells transfected with ILF3-Flag and DHX9-Myc constructs; co-IP performed with anti-Myc, western blot (Fig. 7B, 7C)
[2] = target: DHX9 Myc 3, residues 636-1200 (UniProt Q08211); test: as above
[3] = target: DHX9 Myc 2, residues 255-635 (UniProt Q08211); test: as above
[4] = target: DHX9 Myc 1, residues 1-254 (UniProt Q08211); test: as above

Row | Binder | binding [1] | binding (DHX9-Myc, full-length) | binding [2] | binding [3] | binding [4]
1 | B1 | binds |  |  |  | 
2 | B2 |  | binds | binds | no binding | no binding
3 | B3 |  | binds |  |  | 
4 | B4 |  | binds |  |  | 
